The campaign covered roughly 360,000 compounds. About 16,000 (4.4%) were called active. This list was built around the results that the source calls inconclusive (neither active nor inactive); the mix of calls is not that of the screen. Calls follow the shape of the dose curve; as a rule, active = well fitted inhibition curve with a large enough effect; inconclusive = small, poorly fitted or top-dose-only effect; inactive = no such curve, though single readings can be large or run the other way. Potencies of inconclusive entries are doubtful fits and often do not repeat.
Biological target: Bromodomain adjacent to zinc finger domain protein 2B (Homo sapiens) (UniProt Q9UIF8)
Experiment: qHTS Assay for Inhibitors of BAZ2B; also: nearly all actives have a fitted effect of over 60% in size
Conditions: AlphaScreen BAZ2B-H3K14Ac peptide displacement; series mostly up to 114 µM
Procedure, shortened: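 BAZ2B (50 nM) with biotin-H3(5-23)K14Ac peptide (50 nM) in PBS pH 7.4, 0.01% Tween-20, preformed 30 min, then compound 30 min at room temperature; top concentration 110uM. AlphaScreen streptavidin donor/nickel chelate acceptor beads (10 ug/mL final), 20 min dark, signal read.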
Potency is read from the fitted curve at half-maximal effect; tags tell the direction and shape of the fitted curve.

Chain of UniProt Q9UIF8 (Q9UIF8 whole entry, looked up, the tested form may be a part): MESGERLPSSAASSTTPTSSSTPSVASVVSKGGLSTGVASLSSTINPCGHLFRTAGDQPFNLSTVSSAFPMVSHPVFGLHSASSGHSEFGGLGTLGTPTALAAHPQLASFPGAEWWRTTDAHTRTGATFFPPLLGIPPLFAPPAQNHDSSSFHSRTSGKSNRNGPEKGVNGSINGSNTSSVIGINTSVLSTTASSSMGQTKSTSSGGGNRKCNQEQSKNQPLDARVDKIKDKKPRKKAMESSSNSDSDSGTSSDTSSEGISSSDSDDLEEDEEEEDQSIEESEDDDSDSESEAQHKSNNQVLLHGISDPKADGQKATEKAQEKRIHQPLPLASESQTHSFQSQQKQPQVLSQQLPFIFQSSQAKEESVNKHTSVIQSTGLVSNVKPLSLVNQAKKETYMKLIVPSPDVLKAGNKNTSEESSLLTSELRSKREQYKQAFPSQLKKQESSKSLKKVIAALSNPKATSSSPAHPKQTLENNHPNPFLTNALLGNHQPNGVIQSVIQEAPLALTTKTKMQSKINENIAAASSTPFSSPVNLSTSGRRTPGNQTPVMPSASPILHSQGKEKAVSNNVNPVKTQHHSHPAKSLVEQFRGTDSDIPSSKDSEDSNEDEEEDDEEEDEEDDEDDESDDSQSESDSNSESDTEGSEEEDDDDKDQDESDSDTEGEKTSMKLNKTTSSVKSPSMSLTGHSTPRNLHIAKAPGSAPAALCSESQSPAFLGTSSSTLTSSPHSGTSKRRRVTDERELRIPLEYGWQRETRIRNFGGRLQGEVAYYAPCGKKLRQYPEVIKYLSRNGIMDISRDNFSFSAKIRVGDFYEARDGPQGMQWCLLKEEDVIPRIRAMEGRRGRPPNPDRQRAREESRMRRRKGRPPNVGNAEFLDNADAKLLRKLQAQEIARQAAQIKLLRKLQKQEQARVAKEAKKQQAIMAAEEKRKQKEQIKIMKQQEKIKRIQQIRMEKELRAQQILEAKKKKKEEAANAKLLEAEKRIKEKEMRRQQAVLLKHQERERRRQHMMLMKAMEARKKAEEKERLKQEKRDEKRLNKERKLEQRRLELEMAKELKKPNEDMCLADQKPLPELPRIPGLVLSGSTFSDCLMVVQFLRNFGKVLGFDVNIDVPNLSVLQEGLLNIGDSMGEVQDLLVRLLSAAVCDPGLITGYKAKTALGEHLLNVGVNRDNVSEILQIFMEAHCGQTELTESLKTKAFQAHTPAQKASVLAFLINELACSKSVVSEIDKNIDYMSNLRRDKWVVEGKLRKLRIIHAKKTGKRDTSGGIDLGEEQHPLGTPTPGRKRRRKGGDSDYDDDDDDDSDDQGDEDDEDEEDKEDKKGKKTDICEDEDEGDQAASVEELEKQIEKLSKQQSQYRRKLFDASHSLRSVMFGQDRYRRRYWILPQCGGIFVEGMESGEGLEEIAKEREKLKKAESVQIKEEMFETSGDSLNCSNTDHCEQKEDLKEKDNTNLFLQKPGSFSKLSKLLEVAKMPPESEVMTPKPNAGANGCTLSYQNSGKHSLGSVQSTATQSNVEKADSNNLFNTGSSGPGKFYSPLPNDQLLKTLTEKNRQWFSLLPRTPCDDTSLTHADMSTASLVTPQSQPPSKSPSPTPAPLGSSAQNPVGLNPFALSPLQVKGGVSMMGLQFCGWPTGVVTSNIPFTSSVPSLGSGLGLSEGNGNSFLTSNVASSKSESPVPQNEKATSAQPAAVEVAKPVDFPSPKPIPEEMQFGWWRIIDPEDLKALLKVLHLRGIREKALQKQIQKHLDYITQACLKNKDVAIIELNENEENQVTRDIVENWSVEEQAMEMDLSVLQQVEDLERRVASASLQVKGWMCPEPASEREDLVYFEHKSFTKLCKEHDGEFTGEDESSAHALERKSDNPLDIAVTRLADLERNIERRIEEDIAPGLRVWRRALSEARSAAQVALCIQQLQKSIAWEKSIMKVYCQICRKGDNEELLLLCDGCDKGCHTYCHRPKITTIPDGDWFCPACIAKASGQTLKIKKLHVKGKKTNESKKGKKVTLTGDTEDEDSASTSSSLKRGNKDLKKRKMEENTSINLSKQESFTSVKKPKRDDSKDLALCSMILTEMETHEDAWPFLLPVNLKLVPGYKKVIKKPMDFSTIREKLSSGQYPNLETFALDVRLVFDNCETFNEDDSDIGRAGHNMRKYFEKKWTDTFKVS

Row | Compound | Potency
1 | CCCN1CCN(CCCNC(=O)c2ccc3c(c2)sc2nc(-c4ccc(OCC)cc4)cn23)CC1 | active: 28.2 µM
2 | COc1cc(/C=C/C(=O)OCC(=O)Nc2ccc(C)c(S(=O)(=O)N3CCCCC3)c2)ccc1O | inconclusive: 28.2 µM [inhibitor, full curve, poor fit]
3 | C[C@H]1CN=C(N(C)C)N1CC1CCC(C(C)(C)C)CC1 (some centres not stated) | inactive
4 | Cc1cc(N2CCN(c3ccccc3)CC2)n2cnnc2n1 | inactive
5 | Oc1ccc2ccccc2c1CNc1ccc(Br)cc1 | active: 39.8 µM
6 | Cc1ccc(-c2nnn(CC(=O)N(CC(=O)NCC3CCCO3)c3ccc(F)c(Cl)c3)n2)o1 (configuration not stated) | inconclusive: 89.1 µM [inhibitor, single point]
7 | CC(C)Nc1ccc(Nc2ccnc3cc4ccccc4cc23)cc1 | active: 15.8 µM
8 | Cc1ccc(C(=O)N/C(=C\c2cccs2)C(=O)NCCc2c[nH]c3ccccc23)cc1 | inconclusive: 44.7 µM [inhibitor, partial curve]
9 | Cc1cccc(N=C/C(C(=O)C(F)(F)F)=C(\O)c2ccco2)c1 | inactive
10 | O=C(O)/C(=C\c1cccc(O)c1)c1ccc(S(=O)(=O)N2CCCC2)s1 | inconclusive: 89.1 µM [inhibitor, single point]
11 | Cc1cc2cc(CNC(=O)c3ccc(S(=O)(=O)N4CCCCC4)cc3)ccc2n1C | inactive
12 | CN1CCN(Cc2ccc(OCc3ccccc3)cc2)CC1 | inactive
13 | COc1cccc(-c2nn(C)c3sc(C(=O)NCc4ccc(C)o4)cc23)c1 | inconclusive: 89.1 µM [inhibitor, single point]
14 | Brc1ccc(-c2nnc3n2CCCCC3)cc1 | inconclusive: 7.08 µM [inhibitor, single point]
15 | CCOC(=O)c1cc(-c2ccccc2)n(CC(=O)O)c1C | inconclusive: 79.4 µM [inhibitor, partial curve]
16 | CC(C)N1CCc2c(sc(NC(=O)c3ccc(S(=O)(=O)N(C)C4CCCCC4)cc3)c2C(N)=O)C1 | inactive
17 | COCCNC(=O)c1onc(CSc2ccc(F)c(F)c2)c1C(=O)O | inconclusive: 56.2 µM [inhibitor, partial curve]
18 | CC(=O)Nc1ccc(-n2c(=O)c3ccccc3c3ccccc3c2=O)cc1 | inactive
19 | CCCCN=Cc1c(C)[nH]n(-c2ccccc2)c1=S | inconclusive: 50.1 µM [inhibitor, partial curve]
20 | C#CCOCCOCCOCCNc1nc(N2CCOCC2)nc(N2CCN(C(=O)CCCCCCCCCCNC(=O)[C@@H]([C@H](C)CC)n3cc(CCCCCN)nn3)CC2)n1 | inconclusive: 89.1 µM [inhibitor, single point]
21 | Cc1ccc(NS(=O)(=O)c2cccc(C(=O)NCC(c3ccco3)N3CCCCC3)c2)cc1 (configuration not stated) | inconclusive: 70.8 µM [inhibitor, single point]
22 | N#Cc1ccc(C(=O)NN2C(=O)NC3(CCCCC3)C2=O)cc1 | inactive
23 | CN(CCCNC(=O)Cn1ncc2c([nH]c3ccccc32)c1=O)Cc1ccccc1 | inconclusive: 79.4 µM [inhibitor, single point]
24 | O=C(COc1cccc(C(F)(F)F)c1)N1CCN(c2ccccc2O)CC1 | inconclusive: 56.2 µM [inhibitor, partial curve, poor fit]

Row | Compound | Potency
25 | Cc1ccc2c(c1)-c1c(cnn1CC(=O)N1CCN(c3cc(C)ccc3C)CC1)CO2 | inactive
26 | O=C(/C=C/c1cccc([N+](=O)[O-])c1)NCCN1C(=O)S/C(=C\c2cccnc2)C1=O | inconclusive: 39.8 µM [inhibitor, full curve]
27 | O=C(Nc1nnc(-c2ccco2)o1)c1ccc(Cl)cc1 | inconclusive: 89.1 µM [inhibitor, single point]
28 | O=C(CSc1nc2ccccc2[nH]1)N1c2ccccc2Sc2ccccc21 | inconclusive: 89.1 µM [inhibitor, single point]
29 | COc1cc(C2Nc3cccc4cccc(c34)N2)ccc1O | inconclusive: 89.1 µM [inhibitor, single point]
30 | Cc1ccc(NCC(=O)N/N=C\c2ccc[nH]2)cc1 | inconclusive: 79.4 µM [inhibitor, partial curve]
31 | CCOC(=O)c1cc(-c2ccccc2)n(CC(=O)NCc2ccc(C)cc2)c1C | inactive
32 | COc1cc(/C=C2/SC(=O)N(Cc3ccccc3Cl)C2=O)ccc1OCc1ccncc1 | inactive
33 | COc1cc(CN2CCN(C(=O)CC(C)C)CC2)cc(OC)c1OC | active: 28.2 µM
34 | CCOC(=O)c1c(-c2ccccc2)csc1NC(=O)CCN1C(=O)c2ccccc2C1=O | inactive
35 | CCN(CC)CCn1c(=N)n(CCOc2ccccc2Cl)c2ccccc21 | inconclusive: 50.1 µM [inhibitor, partial curve]
36 | CCN(CCCNC(=O)C1CCN(S(=O)(=O)N2CCC3(CC2)OCCO3)CC1)c1ccccc1 | inactive
37 | O=C(NCCc1ccccc1)c1ccc(CSc2nc3cccnc3n2Cc2ccccc2F)cc1 | active: 14.1 µM
38 | CCCn1c(SC(C)C(=O)NC2CCCC2)n[nH]c1=O (configuration not stated) | inactive
39 | O=C1CN(C(=O)c2ccc(S(=O)(=O)N3CCCCC3)cc2)C(c2ccc(F)cc2)c2cc(Cl)ccc2N1 (configuration not stated) | inactive
40 | NC(=O)c1cc(S(=O)(=O)N2CCN(c3ccc([N+](=O)[O-])cc3)CC2)cs1 | inconclusive: 44.7 µM [inhibitor, partial curve]
41 | Clc1ccccc1-c1nnc2sc(-c3cccs3)nn12 | inactive
42 | N#CC1=C(N)S[C@@H](C(=O)c2ccc(F)cc2)[C@@H]1c1cccs1 | inconclusive: 89.1 µM [inhibitor, single point]
43 | Cc1cc(C)c(C#N)c(SCCN2CCOCC2)n1 | inactive
44 | O=C(CSc1nnc(-c2ccco2)n1Cc1ccccc1)c1ccccc1 | inconclusive: 89.1 µM [inhibitor, single point]
45 | N#C/C(=C\c1ccc(OCc2ccc(F)cc2)cc1)C(=O)Nc1cccc(C(=O)O)c1 | active: 79.4 µM
46 | COc1cc2nc(N3CCN(c4cc(C)ccc4C)CC3)nc(N)c2cc1OC | active: 50.1 µM
47 | CC1CCN(Cc2nnnn2-c2cccc([N+](=O)[O-])c2)CC1 | inconclusive: 79.4 µM [inhibitor, partial curve]
